# “And” between values parts separate entries of the source, which are not always exact repeats. Equal entries are not always repeated. The shares of active, inactive and inconclusive entries below differ from those in the screen. For part of these data: Where the call is inconclusive, the potency comes from a doubtful curve fit. The source made the active and inactive calls. Unless noted, calls come from the whole dose curve; as a rule, active = well fitted curve in the direction sought with a large enough effect; inconclusive = small, poorly fitted or top-dose-only effect, or another doubt; inactive = no such curve, though single readings can be large; an effect the other way counts as inactive or inconclusive.
# Key:
# [1] = target: Furin (Homo sapiens) (UniProt P09958); experiment: Furin counterscreen qHTS for Zika virus inhibitors (AID 1347149); conditions: furin enzymatic counterscreen, fluorogenic substrate; activity change, negative = inhibition: at 114 µM (top of the series); note: nearly all actives have a fitted effect of over 70% in size; note: potency is the fitted concentration of half-maximal effect;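 for activity change, negative = inhibition: purified recombinant full-length human furin enzyme at 5 nM; fluorescence gain from furin cutting a BOC-RVRR-AMC peptide substrate over 15 min; top concentration of the series differs between compounds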
# Summary of the method: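 Fluorogenic cleavage of BOC-RVRR-AMC (2 microM final, Km ~15 µM) was monitored (ex 340, em 450 nm) at 37C after 15 min RT preincubation of 5 nM furin with compounds in HEPES pH 7.0 buffer with CaCl2 and Triton X-100. Percent inhibition was fitted to a 4-parameter Hill curve.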
# [2] = system: Zika virus NS2B-NS3 protease; experiment: Primary screen GU AMC qHTS for Zika virus inhibitors (AID 1347154); note: potency is the fitted concentration of half-maximal effect; nearly all actives have a fitted effect of over 70% in size
# Summary of the method: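 Fluorogenic AMC-substrate cleavage by noncovalent NS2B-NS3 protease complex (25 nM, pH 8.0 Tris buffer with Tween 20) followed for 15 minutes at room temperature (~20% conversion). Percent inhibition from ex340/em450 signal change, fitted by 4-parameter Hill equation.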
# [3] = ZIKV-mCherry secondary qHTS for Zika virus inhibitors (AID 1347158); conditions: Vero cells, ZIKV-mCherry infection imaging, 48-72 h; activity change, negative = inhibition: at 49.2 µM (top of the series); note: potency is the fitted concentration of half-maximal effect; for activity change, negative = inhibition: top concentration of the series differs between compounds
# Summary of the method: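 Vero, 5,000 cells/well, o/n 37 °C; cpd pin-transferred in DMSO; ZIKV-mCherry MOI 1, 48-72 h 37 °C; 32% PFA stock fix, Hoechst; imaged 10x DAPI/mCherry; mCherry+ threshold 450 RFU; % infection.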
# [4] = Tertiary RLuc qRT-PCR qHTS assay for Zika virus inhibitors (AID 1347169); note: potency is the fitted concentration of half-maximal effect; nearly all actives have a fitted effect of over 55% in size
# Summary of the method: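 Vero cells (1,000/well) infected with recombinant ZIKV-RLuc (Cambodian) at MOI 1-2 after compound addition, 48-72 hrs at 37 degrees C. Live-cell Renilla luciferase substrate added; luminescence read after 1-1.5 hrs.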
# [5] = system: Zika virus NS2B-NS3 protease (linked construct); experiment: Confirmatory screen NINDS AMC qHTS for Zika virus inhibitors (AID 1347152); note: potency is the fitted concentration of half-maximal effect; nearly all actives have a fitted effect of over 70% in size
# Summary of the method: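 Linked NS2B-NS3 protease, 1 nM, in 10 mM Tris-HCl pH 8.0, 0.01% Tween 20; compounds preincubated 15 min at room temperature. Nle-KRR-AMC 10 microM (Km 18.3 µM); 15-min fluorescence change (340/450 nm) fitted to 4-parameter Hill.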
# [6] = Confirmatory screen GU Rhodamine qHTS for Zika virus inhibitors qHTS (AID 1347157); note: potency is the fitted concentration of half-maximal effect; nearly all actives have a fitted effect of over 70% in size
# Summary of the method: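 A qHTS format was used, with compound concentrations ranging up to 114 microM. Each compound was preincubated with 25 nM NS2B-NS3 protease, and the substrate was then added at 1.5 microM. Curves were fitted with a 4-parameter Hill model.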
# [7] = Confirmatory screen NINDS Rhodamine qHTS for Zika virus inhibitors (AID 1347161); note: potency is the fitted concentration of half-maximal effect; nearly all actives have a fitted effect of over 60% in size
# Summary of the method: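 Percent inhibition, normalized to uninhibited and enzyme-free controls, is fitted to a 4-parameter Hill equation. Fluorescence change comes from a 15-min cleavage of 1.5 microM bis-peptide Rhodamine110 substrate by 25 nM linked NS2B-NS3 at room temperature.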
# [8] = system: Zika virus NS2B-NS3 protease (linked); experiment: 384 well plate NINDS AMC confirmatory qHTS for Zika virus inhibitors (AID 1347163); note: nearly all actives have a fitted effect of over 50% in size; note: potency is the fitted concentration of half-maximal effect;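 for activity change, negative = inhibition: linked protease at 5 30 or 60 nM final depending on run; fluorescence of AMC released from Ac-VKTGKR-AMC peptide cleaved by the protease; top concentration of the series differs between compounds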
# Summary of the method: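 Linked NS2B-NS3 protease (final 5 nM, 30 nM or 60 nM) was preincubated with compounds (final up to 1 mM) for ~15 minutes. Ac-VKTGKR-AMC substrate (final 30 microM) then reacted for 25 minutes at room temperature in the dark. Fluorescence (ex 355/em 460 nm) was normalized to no-enzyme and no-inhibitor controls.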
# [9] = system: Zika virus NS2B-NS3 protease (linked construct); experiment: 384 well plate NINDS Rhodamine confirmatory qHTS for Zika virus inhibitors (AID 1347164);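 note: fluorescence from protease cleavage of Ac-LKRR-rhodamine 110 substrate; top concentration of the series differs between compounds; nearly all actives have a fitted effect of over 65% in size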
# Summary of the method: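 Linked NS2B-NS3 protease (final 5, 30 or 60 nM) preincubated ~15 minutes with compounds, then 10 microM Ac-LKRR-Rhodamine 110 added. Fluorescence (485/538 nm) read after 25 minutes at room temperature, normalized to no-enzyme and no-inhibitor controls.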
# [10] = target: 3',5'-cyclic-AMP phosphodiesterase 4B (Homo sapiens) (UniProt Q07343); experiment: qHTS Assay for Inhibitors of PDE-IV (AID 607; active = well fitted activation curve with a large enough effect in the main read-out, with a control signal flat, not every such curve was filed as active; inconclusive = small, poorly fitted or top-dose-only effect, or effect the other way, or a change in a side signal; note: potency is the fitted concentration of half-maximal effect); conditions: HEK293 ACTOne CNG channel cells, membrane potential fluorescence; series mostly up to 22.9 µM
# Summary of the method: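 Cell-based read-out of cAMP via a modified cyclic nucleotide-gated channel and membrane potential dye (535/590 nm) in HEK293 cells expressing PDE4 endogenously. Compounds tested up to 22.9 uM final; 100 uM RO 20-1724 reference.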
# [11] = qHTS Assay for Identification of Small Molecule Antagonists for NFkB Signaling Pathway (AID 895; active = well fitted inhibition curve with a large enough effect in the signal ratio, with a control signal flat, not every such curve was filed as active; inconclusive = small, poorly fitted or top-dose-only effect, or effect the other way, or a change in a side signal; the % refers to the signal ratio; note: potency is the fitted concentration of half-maximal effect); conditions: NFkB beta-lactamase reporter cells, FRET ratio 460/530, stimulated with 10 pM TNF alpha; activity change, negative = inhibition: at 38.3 µM (top of the series)
# Summary of the method: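 Beta-lactamase reporter read-out (460 and 530 nm emission ratio, 405 nm excitation, 2 hrs substrate loading RT) after 5 hr stimulation with 10 pM TNF alpha in compound-treated NFkB-bla ME-180 cells in low-serum medium.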
# [12] = target: RecQ-like DNA helicase BLM (Homo sapiens) (UniProt P54132); experiment: qHTS Validation Assay for Inhibitors of Bloom's syndrome helicase (BLM) (AID 2364); note: potency is the fitted concentration of half-maximal effect
# Summary of the method: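 Forked 20-bp duplex substrate (200 nM, TAMRA/BHQ-2) plus 2 mM ATP added after 15 min compound preincubation with 50 nM enzyme, pH 8.0, poly(dI-dC) 2.5 ug/ml. Strand separation followed by fluorescence (525/598 nm) over 2 h, normalized to enzyme-free and DMSO controls.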
# [13] = target: Ubiquitin carboxyl-terminal hydrolase 1 (Homo sapiens) (UniProt O94782); experiment: Inhibitors of USP1/UAF1: Pilot qHTS (AID 504865);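 note: rhodamine fluorescence freed from ubiquitin-rhodamine substrate followed over time; potency is the fitted concentration of half-maximal effect; nearly all actives have a fitted effect of over 35% in size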
# Summary of the method: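 USP1/UAF1 complex at 1 nM preincubated 15 min at room temperature with compound, then Ub-Rho substrate added at 150 nM final. Fluorescence (480/540 nm) read kinetically in 50 mM HEPES pH 7.8, 0.5 mM EDTA, 1 mM TCEP, 0.1 mg/ml BSA, 0.01% Tween-20.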
# [14] = Primary qHTS for small molecule stabilizers of the endoplasmic reticulum resident proteome: Secreted ER Calcium Modulated Protein (SERCaMP) assay (AID 1508630); conditions: SH-SY5Y GLuc-SERCaMP (Gaussia luciferase released on ER calcium loss) secretion, thapsigargin, luminescence; activity change, negative = inhibition: at 38.4 µM (top of the series) unless noted; note: potency is the fitted concentration of half-maximal effect
# Summary of the method: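 GLuc-SERCaMP-expressing SH-SY5Y cells, pretreated 16 h with compound, are challenged with thapsigargin to empty ER calcium stores; after 4 h, coelenterazine is added directly to the medium and luminescence is imaged.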
# Tags give direction and shape of the fitted curve or compound fluorescence and quenching.
# Sequence of UniProt P09958 (P09958 whole entry, looked up): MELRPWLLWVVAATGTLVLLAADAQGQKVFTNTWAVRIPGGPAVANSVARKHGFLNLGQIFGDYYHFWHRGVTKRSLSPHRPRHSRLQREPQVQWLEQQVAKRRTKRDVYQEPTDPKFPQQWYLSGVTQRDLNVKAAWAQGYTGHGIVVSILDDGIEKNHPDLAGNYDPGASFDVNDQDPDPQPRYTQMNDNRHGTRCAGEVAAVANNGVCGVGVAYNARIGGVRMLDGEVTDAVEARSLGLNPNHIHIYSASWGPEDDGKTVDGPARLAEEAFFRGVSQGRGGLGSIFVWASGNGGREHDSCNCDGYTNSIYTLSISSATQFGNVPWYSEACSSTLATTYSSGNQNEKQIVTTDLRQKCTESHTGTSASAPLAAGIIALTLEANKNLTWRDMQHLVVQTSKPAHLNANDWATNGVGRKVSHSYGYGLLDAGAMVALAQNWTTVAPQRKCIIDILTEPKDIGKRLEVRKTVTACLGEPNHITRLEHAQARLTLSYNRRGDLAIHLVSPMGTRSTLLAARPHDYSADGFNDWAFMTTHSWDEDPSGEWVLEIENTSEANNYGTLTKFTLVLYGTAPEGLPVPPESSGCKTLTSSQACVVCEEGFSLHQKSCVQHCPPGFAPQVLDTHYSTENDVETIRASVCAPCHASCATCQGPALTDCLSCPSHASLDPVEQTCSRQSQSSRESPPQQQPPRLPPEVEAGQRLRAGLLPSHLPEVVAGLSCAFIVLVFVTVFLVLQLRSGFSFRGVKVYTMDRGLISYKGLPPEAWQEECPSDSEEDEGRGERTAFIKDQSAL
# Sequence of UniProt Q07343 (Q07343 whole entry, looked up): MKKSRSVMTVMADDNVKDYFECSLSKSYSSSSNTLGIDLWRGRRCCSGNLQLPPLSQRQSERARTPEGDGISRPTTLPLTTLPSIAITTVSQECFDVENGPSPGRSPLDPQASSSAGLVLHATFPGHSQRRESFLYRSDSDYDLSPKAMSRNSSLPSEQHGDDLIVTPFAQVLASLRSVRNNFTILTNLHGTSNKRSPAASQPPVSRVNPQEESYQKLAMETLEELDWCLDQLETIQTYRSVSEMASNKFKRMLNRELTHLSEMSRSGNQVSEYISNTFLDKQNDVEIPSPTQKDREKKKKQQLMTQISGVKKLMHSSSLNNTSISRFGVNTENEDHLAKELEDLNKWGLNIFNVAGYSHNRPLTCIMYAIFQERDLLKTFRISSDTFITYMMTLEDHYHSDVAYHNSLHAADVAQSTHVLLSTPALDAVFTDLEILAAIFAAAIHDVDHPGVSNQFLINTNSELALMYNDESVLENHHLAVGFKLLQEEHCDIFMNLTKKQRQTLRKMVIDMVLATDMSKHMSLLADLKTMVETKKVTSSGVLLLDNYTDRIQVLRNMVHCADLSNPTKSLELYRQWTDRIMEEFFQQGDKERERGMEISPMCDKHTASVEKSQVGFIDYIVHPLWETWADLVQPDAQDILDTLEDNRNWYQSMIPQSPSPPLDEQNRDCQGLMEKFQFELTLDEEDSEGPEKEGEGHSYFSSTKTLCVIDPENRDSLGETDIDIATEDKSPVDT
# Sequence of UniProt P54132 (P54132 whole entry, looked up): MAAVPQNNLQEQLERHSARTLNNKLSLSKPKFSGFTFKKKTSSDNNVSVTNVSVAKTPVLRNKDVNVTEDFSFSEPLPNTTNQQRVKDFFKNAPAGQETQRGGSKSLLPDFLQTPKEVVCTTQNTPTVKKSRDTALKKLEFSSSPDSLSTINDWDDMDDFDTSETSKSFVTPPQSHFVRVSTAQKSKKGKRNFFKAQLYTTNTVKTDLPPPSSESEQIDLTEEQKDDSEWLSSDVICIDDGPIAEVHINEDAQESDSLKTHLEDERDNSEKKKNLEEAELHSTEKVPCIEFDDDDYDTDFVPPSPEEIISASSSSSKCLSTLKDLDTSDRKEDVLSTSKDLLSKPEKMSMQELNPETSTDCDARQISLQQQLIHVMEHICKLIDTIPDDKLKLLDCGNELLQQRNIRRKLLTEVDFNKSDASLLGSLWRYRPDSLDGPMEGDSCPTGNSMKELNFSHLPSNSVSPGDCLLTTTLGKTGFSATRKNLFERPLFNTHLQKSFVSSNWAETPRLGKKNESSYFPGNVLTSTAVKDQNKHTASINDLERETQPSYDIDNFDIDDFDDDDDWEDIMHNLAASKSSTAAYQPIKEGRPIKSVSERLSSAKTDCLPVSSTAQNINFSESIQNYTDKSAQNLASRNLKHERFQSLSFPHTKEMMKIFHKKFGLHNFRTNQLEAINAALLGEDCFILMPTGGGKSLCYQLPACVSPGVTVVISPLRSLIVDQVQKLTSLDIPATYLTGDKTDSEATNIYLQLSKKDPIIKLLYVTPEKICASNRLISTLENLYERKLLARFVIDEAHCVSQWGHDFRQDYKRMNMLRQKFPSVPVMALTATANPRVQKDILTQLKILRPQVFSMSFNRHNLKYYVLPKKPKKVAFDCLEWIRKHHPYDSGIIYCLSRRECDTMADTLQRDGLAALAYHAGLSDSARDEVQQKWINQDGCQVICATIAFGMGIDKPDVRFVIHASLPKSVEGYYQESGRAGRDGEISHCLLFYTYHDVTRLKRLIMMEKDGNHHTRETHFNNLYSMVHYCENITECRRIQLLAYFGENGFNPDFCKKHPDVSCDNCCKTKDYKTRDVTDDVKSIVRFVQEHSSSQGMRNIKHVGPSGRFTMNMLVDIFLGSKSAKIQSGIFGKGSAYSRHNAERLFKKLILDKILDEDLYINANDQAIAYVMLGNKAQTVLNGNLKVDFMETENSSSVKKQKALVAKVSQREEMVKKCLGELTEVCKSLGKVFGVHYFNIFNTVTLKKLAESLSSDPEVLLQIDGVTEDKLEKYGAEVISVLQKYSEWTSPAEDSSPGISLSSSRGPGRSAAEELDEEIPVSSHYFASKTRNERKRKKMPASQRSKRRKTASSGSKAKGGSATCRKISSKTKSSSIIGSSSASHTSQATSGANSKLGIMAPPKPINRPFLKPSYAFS
# Sequence of UniProt O94782 (O94782 whole entry, looked up): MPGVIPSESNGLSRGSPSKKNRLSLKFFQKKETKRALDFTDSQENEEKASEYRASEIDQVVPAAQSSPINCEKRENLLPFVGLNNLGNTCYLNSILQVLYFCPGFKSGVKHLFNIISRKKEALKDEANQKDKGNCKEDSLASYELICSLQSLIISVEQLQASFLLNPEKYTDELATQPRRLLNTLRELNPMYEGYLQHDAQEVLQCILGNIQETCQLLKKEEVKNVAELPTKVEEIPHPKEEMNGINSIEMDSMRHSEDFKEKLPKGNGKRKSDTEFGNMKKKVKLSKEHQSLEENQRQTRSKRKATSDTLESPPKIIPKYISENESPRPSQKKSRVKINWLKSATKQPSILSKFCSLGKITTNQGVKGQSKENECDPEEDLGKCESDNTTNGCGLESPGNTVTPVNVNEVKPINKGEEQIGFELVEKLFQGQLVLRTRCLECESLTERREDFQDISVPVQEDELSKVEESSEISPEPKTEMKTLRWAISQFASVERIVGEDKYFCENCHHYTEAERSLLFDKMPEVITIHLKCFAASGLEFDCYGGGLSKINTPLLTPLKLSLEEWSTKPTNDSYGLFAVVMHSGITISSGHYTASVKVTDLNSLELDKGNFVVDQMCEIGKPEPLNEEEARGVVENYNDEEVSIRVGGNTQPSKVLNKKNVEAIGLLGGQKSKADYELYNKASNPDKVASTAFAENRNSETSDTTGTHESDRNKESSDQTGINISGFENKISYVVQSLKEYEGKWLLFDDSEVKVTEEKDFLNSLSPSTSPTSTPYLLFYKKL
smiles,measurement,setting,value
CC(=O)Oc1cc2c(c(C)c1OC(C)=O)CC=C1[C@@]2(C)CC[C@@]2(C)[C@H]3C[C@](C)(C(=O)O)CC[C@]3(C)CC[C@]12C,Potency,[1],inactive
same,Potency,[2],active: 13.4 µM
same,Potency,[3],"inconclusive: 2.24 µM [inhibitor, full curve]"
same,Potency,[4],"inconclusive: 1.85 µM [inhibitor, full curve]"
CC(Oc1ccccc1)C(=O)Nc1ccccc1C(=O)OCc1cc(=O)n2nc(C3CC3)sc2n1 (stereo not drawn),Potency,[1],"inconclusive: 69.8 µM [inhibitor, single point]"
same,Potency,[5],"inconclusive: 49.4 µM [inhibitor, partial curve]"
same,Potency,[4],"inconclusive: 10.4 µM [inhibitor, full curve, poor fit]"
O=C(COc1ccccc1)Nc1ccc(C(=O)OCc2cc(=O)n3nc(C4CC4)sc3n2)cc1,Potency,[1],inactive
same,Potency,[6],"inconclusive: 44.7 µM [inhibitor, partial curve, poor fit]"
Cc1c2ccccc2c(CSC(=N)N)c2ccccc12,Potency,[1],inactive
same,Potency,[2],active: 21.2 µM
same,Potency,[4],"inconclusive: 26.2 µM [inhibitor, partial curve]"
O=C(Nc1ccc(C(=O)OCc2cc(=O)n3nc(C4CC4)sc3n2)cc1)c1cccc(Cl)c1,Potency,[1],"inconclusive: 52.7 µM [inhibitor, partial curve, poor fit]"
same,Potency,[6],"inconclusive: 39.8 µM [inhibitor, partial curve]"
same,Potency,[7],"inconclusive: 44.7 µM [inhibitor, partial curve]"
same,Potency,[8],inactive
same,Potency,[9],inactive
same,Potency,[4],"inconclusive: 0.0017 µM [inhibitor, full curve, poor fit]"
Cc1cccc(C)c1-n1c(SCC(=O)Nc2ccc(C(=O)O)cc2)nnc1-c1cccc([S+](=O)([O-])N2CCCC2)c1,Potency,[1],inactive
same,Potency,[6],"inconclusive: 89.1 µM [inhibitor, single point]"
same,Potency,[3],inactive
O=C(Nc1cc(C(=O)Nc2ccc(S(=O)(=O)O)cc2S(=O)(=O)O)cc(C(=O)Nc2ccc(S(=O)(=O)O)cc2S(=O)(=O)O)c1)Nc1cc(C(=O)Nc2ccc(S(=O)(=O)O)cc2S(=O)(=O)O)cc(C(=O)Nc2ccc(S(=O)(=O)O)cc2S(=O)(=O)O)c1,Potency,[10],"inconclusive: 19 µM [inhibitor, single point]"
same,Potency,[11],"inconclusive: 1.26 µM [activator, full curve]"
same,Potency,[12],"inconclusive: 8.91 µM [inhibitor, partial curve, poor fit]"
same,Potency,[13],active: 1 µM
same,Potency,[1],"inconclusive: 13.2 µM [inhibitor, full curve] and inconclusive: 8.35 µM [inhibitor, full curve]"
same,Potency,[2],"inconclusive: 1.68 µM [inhibitor, partial curve, poor fit]"
same,Potency,[3],"inconclusive: 8.91 µM [inhibitor, full curve] and inconclusive: 14.1 µM [inhibitor, partial curve]"
same,Potency,[4],"inconclusive: 12.6 µM [inhibitor, partial curve, poor fit]"
same,Potency,[14],"inconclusive: 11.2 µM [inhibitor, partial curve, poor fit]"
COc1cccc(-n2nc(C(=O)O)cc2-c2ccc(C3CCCCC3)c(Cl)c2)c1,Potency,[1],"inconclusive: 12.4 µM [inhibitor, full curve]"
same,Potency,[3],"inconclusive: 8.91 µM [inhibitor, full curve]"
same,Potency,[8],"inconclusive: 0.447 µM [inhibitor, full curve, poor fit]"

# From PubChem BioAssay (NCATS)
